Results from PMC5892938.
The list shows a part of the results. At the low end of the ranking the order means little.

Target: GST-SBP-SLBP (stem-loop binding protein) (UniProt Q14493)
Experiment: targeted RNA Bind-n-Seq;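 note: DESeq read counts versus GST-SBP nonspecific binding control pulldown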
Conditions: RBNS binding buffer: 25 mM Tris pH 7.5, 150 mM KCl, 3 mM MgCl2, 0.1% Tween, 0.5 mg/mL BSA, 1 mM DTT; 27 nM protein, 750 pM RNA pool; temperature not stated; high values mean tight binding

Row | Sequence | binding signal (log2 fold change)
1 | GGUCACGUCUCAAUCAACUCAAUCUCCAGGGAAAACCCUGGCAAUGUCAACAGCUCGCAGUCAAG | 0.578
2 | GGUCACGUCUCAAUCAACUCAUUUUCAGGAGUUUGCUCCUGUUUUUUCAACAGCUCGCAGUCAAG | 0.00789
3 | GGUCACGUCUCAAUCAACUCAACAGAGGGGGGGAAAACCCCUUUACCCUCCAAAUCAACAGCUCGCAGUCAAG | -0.224
4 | GGUCACGUCUCAAUCAACUCAACUCCAGGAGUUUCCUCCUGCUAUCUCAACAGCUCGCAGUCAAG | 0.199
5 | GGUCACGUCUCAAUCAACUCAUCCCCCAGGGAAAGCCCUGGCUUUUUCAACAGCUCGCAGUCAAG | -0.215
6 | GGUCACGUCUCAAUCAACUCAUUCCCAGGAGUUUUCUCCUGCAAUCUCAACAGCUCGCAGUCAAG | -0.0261
7 | GGUCACGUCUCAAUCAACUCAACUUCAGGAGUUUCCUCCUGUUAAUUCAACAGCUCGCAGUCAAG | -0.199
8 | GGUCACGUCUCAAUCAACUCUUUUUCAGGAGUUUCCUCCUGCAAAUUCAACAGCUCGCAGUCAAG | 0.0665
9 | GGUCACGUCUCAAUCAACUCUAUCCCCAGGGAAAACCCUGGUUUUUUCAACAGCUCGCAGUCAAG | -0.12
10 | GGUCACGUCUCAAUCAACUCUUCGCCCAGGGAAAACCCUGGUUAUCUCAACAGCUCGCAGUCAAG | -0.217
11 | GGUCACGUCUCAAUCAACUCAACUUCAGGAGUUUCCUCCUGCUAACUCAACAGCUCGCAGUCAAG | 0.017
12 | GGUCACGUCUCAAUCAACUCUUCUCCCAGGGAAACCCCUGGCUUACUCAACAGCUCGCAGUCAAG | 0.0804
13 | GGUCACGUCUCAAUCAACUCUUCUUCAGGAGUUUUCUCCUGCUUACUCAACAGCUCGCAGUCAAG | 0.0178
14 | GGUCACGUCUCAAUCAACUCUCAAGAGGGGGGGAAAACCCCUUUGCCCUCAAAAUCAACAGCUCGCAGUCAAG | -0.0605
15 | GGUCACGUCUCAAUCAACUCACAAGAGGGGGGGAAAACCCCUUUACCCUCCUAUUCAACAGCUCGCAGUCAAG | 0.107
16 | GGUCACGUCUCAAUCAACUCAAUAGAGGGGGGGAAAACCCCUUUGCCCUCACCGUCAACAGCUCGCAGUCAAG | -0.123
17 | GGUCACGUCUCAAUCAACUCAAUUUCAGGAGUUUACUCCUGUUUUUUCAACAGCUCGCAGUCAAG | -0.0321
18 | GGUCACGUCUCAAUCAACUCUUCUCCCAGGGAAAACCCUGGUAAUGUCAACAGCUCGCAGUCAAG | 0.222
19 | GGUCACGUCUCAAUCAACUCAUUCCCAGGAGUUUACUCCUGCAUAUUCAACAGCUCGCAGUCAAG | -0.0471

Row | Sequence | binding signal (log2 fold change)
20 | GGUCACGUCUCAAUCAACUCCUUCGAGGGGGGGAAAACCCCUUUACCCUCAAAUUCAACAGCUCGCAGUCAAG | -0.0686
21 | GGUCACGUCUCAAUCAACUCAUACGAGGGGGGGAAAACCCCUUUACCCUCACUAUCAACAGCUCGCAGUCAAG | -0.0113
22 | GGUCACGUCUCAAUCAACUCAUCUUCAGGAGUUUACUCCUGUUAUUUCAACAGCUCGCAGUCAAG | -0.0176
23 | GGUCACGUCUCAAUCAACUCUAUCUCAGGAGUUUGCUCCUGCUUAUUCAACAGCUCGCAGUCAAG | 0.0887
24 | GGUCACGUCUCAAUCAACUCAUCUCCAGGAGUUUUCUCCUGUAUACUCAACAGCUCGCAGUCAAG | -0.00572
25 | GGUCACGUCUCAAUCAACUCUCCCGAGGGGGGGAAAACCCCUUUGCCCUCAUCUUCAACAGCUCGCAGUCAAG | 0.109
26 | GGUCACGUCUCAAUCAACUCUACUCCAGGAGUUUUCUCCUGCAUUCUCAACAGCUCGCAGUCAAG | -0.138
27 | GGUCACGUCUCAAUCAACUCAUCGCCCAGGGAAACCCCUGGUUAAUUCAACAGCUCGCAGUCAAG | -0.0787
28 | GGUCACGUCUCAAUCAACUCCCCAGAGGGGGGGAAAACCCCUUUACCCUCAAAAUCAACAGCUCGCAGUCAAG | -0.517
29 | GGUCACGUCUCAAUCAACUCAACUCCCAGGGAAACCCCUGGUAUACUCAACAGCUCGCAGUCAAG | -0.13
30 | GGUCACGUCUCAAUCAACUCUACUUCAGGAGUUUUCUCCUGCAAAUUCAACAGCUCGCAGUCAAG | 0.0993
31 | GGUCACGUCUCAAUCAACUCAAUCGCAGGAGUUUCCUCCUGGUUUUUCAACAGCUCGCAGUCAAG | -0.0683
32 | GGUCACGUCUCAAUCAACUCUUCCCCAGGAGUUUUCUCCUGCUUAUUCAACAGCUCGCAGUCAAG | 0.0205
33 | GGUCACGUCUCAAUCAACUCCAAAGAGGGGGGGAAAACCCCUUUGCCCUCCAAAUCAACAGCUCGCAGUCAAG | -0.387
34 | GGUCACGUCUCAAUCAACUCAUUUCCCAGGGAAAUCCCUGGUAUACUCAACAGCUCGCAGUCAAG | 0.00235
35 | GGUCACGUCUCAAUCAACUCUAUCCCAGGAGUUUACUCCUGUAAUUUCAACAGCUCGCAGUCAAG | 0.0931
36 | GGUCACGUCUCAAUCAACUCUUUUUCAGGAGUUUCCUCCUGCAAUUUCAACAGCUCGCAGUCAAG | -0.102
37 | GGUCACGUCUCAAUCAACUCUCAAGAGGGGGGGAAAACCCCUUUGCCCUCGAAAUCAACAGCUCGCAGUCAAG | -0.383
